The source gives no read counts; variants with many changes may rest on few reads.
B1: OR4K15 (parent)
chain: GUUAACGGUCAUAGGCCAUGGAAACUAGGAGCACCAUUUCGCUGCCAGUGAAGAAAUGAACAAAGAAAAUCUGGGCCAGGCAGGCAUCAAAAGAAAUAGUCUUGCGCUCAACCAGAAAGUCUGUAAUCAUUUUAAGGGUA

Variants of: B1
Assay: self-cleavage, relative activity (ratio to wild type); higher = more cleavage; in vitro, sequencing; the parent is a self-cleaving ribozyme
For GUUAACGGUCAUAGGCCAUGGAAACUAGGAGCACCAUUUCGCUGCCAGUGAAGAAAUGAACAAAGAAAACCUGGGCCAGGCAGGCAUCAAAAGAAAUAUUCUUGCGCUCAACCAGAAUGUCUGUAAUCAUUUUAAGGGUA [U70C G99U A118U], the self-cleavage was 0.03. With GUUAACGGUCAUAGGCCAUGGAAACUAGGAGCACCAUUUCGCUGCCAGUGAAGAAAUGAACAAAGAAAACCUGGGCCAGGCAGGCAUCAAAAGAAAUAGUCUUGCGCUCAACCGGAAAGUCCGUAUUCAUUUUAAGGGUA [U70C A114G U122C A126U] the self-cleavage was 0.07. GUUAACGGUCAUAGGCCAUGGAAACUAGGAGCACCAUUUCGCUGCCAGUGAAGAAAUGAACAAAGAAAACCUGGGCCAGGCAGGCAUCAAAAGAAAUAGUCUUUCGCUCUACCAGAAAGUCUGUAAUCAUUUUAAGGGUA [U70C G104U A110U] showed a self-cleavage of 0.01. For GUUAACGGUCAUAGGCCAUGGAAACUAGGAGCACCAUUUCGCUGCCAGUGAAGAAAUGAACAAAGAAAAACUGGGCCAGGCAGGCACCAAAUGAAAUAGUCUUGCGCUCGACCAGGAAGUCUGUAAUCAUUUUAAGGGUA [U70A U87C A92U A110G A116G], the self-cleavage was 0.04. Work on GUUAACGGUCAUAGGCCAUGGAAACUAGGAGCACCAUUUCGCUGCCAGUGAAGAAAUGAACAAAGAAAACCAGGGCCAGGCAGGCAUCAAAAGAAAUAGUCGUGCGCUCAACCAGAAAGACUGUAAUCAUUUUAAGGGUA [U70C U72A U102G U120A] yielded a self-cleavage of 0.04. GUUAACGGUCAUAGGCCAUGGAAACUAGGAGCACCAUUUCGCUGCCAGUGAAGAAAUGAACAAAGAAAACCUGGGCCAGGCAGGCAUCAAAAGAAAUAGUCAUGCGCUCAACCAGACAGUCUGUAAUCAUUUUAAGGGUA [U70C U102A A117C] gave a self-cleavage of 0.02. GUUAACGGUCAUAGGCCAUGGAAACUAGGAGCACCAUUUCGCUGCCAGUGAAGAAAUGAACAAAGAAAACCUGGGCCAGGCAGGCAUCAAAGGAAAUAGUCUUGCGCUCAACCAGAAAGUCUGUAACCAUUUUAAGGGUA [U70C A92G U127C] gave a self-cleavage of 0.24. In the case of GUUAACGGUCAUAGGCCAUGGAAACUAGGAGCACCAUUUCGCUGCCAGUGAAGAAAUGAACAAAGAAAACCUGGGCCAGGCAGGCAUCAAAAGAAAUAGUCUUGCGCUCAACCAGGAAGUCUGAAAUCAUUUUAAGGGUA [U70C A116G U124A], the self-cleavage is reported as 0.96. With GUUAACGGUCAUAGGCCAUGGAAACUAGGAGCACCAUUUCGCUGCCAGUGAAGAAAUGAACAAAGAAAACCUGGGCCAGGCAGGCAUCAAAAGAAGUAGUCUUGCGCUCAACCAGAAAGUCCGUAAUCAUUUUAAGGGUA [U70C A96G U122C] the self-cleavage was 0.07. For GUUAACGGUCAUAGGCCAUGGAAACUAGGAGCACCAUUUCGCUGCCAGUGAAGAAAUGAACAAAGAAAACCUGGGCCAGGCAGGCAUCAAAAGAAAUGGUCUUGCGCCCAACCAGAAAGUCUGUAGUCAUUUUAAGGGUA [U70C A98G U108C A126G], the self-cleavage was 0.01. GUUAACGGUCAUAGGCCAUGGAAACUAGGAGCACCAUUUCGCUGCCAGUGAAGAAAUGAACAAAGAAAACCUGGGCCAGGCAGGCACCAAAAGAAAUAGUCUUGCGCUCAGCCAGAAAGUCUGUAAUCAUUUUAAGGGUA [U70C U87C A111G] showed a self-cleavage of 0.03. With GUUAACGGUCAUAGGCCAUGGAAACUAGGAGCACCAUUUCGCUGCCAGUGAAGAAAUGAACAAAGAAAACCUGGGCCAGGCAGGCAUCAAAAGAGAUAGUCUUGCGCUCAACCAGAAAGUCUGUACUCAUUUUAAGGGUA [U70C A95G A126C] the self-cleavage was 1.01. GUUAACGGUCAUAGGCCAUGGAAACUAGGAGCACCAUUUCGCUGCCAGUGAAGAAAUGAACAAAGAAAACCUGGGCCAGGCAGGCAUCUAAAGAAAUAGUCUUGCGCUCGACCAGAAAGUCUGUAAUCAUUUUAAGGGUA [U70C A89U A110G] gave a self-cleavage of 0.03. Work on GUUAACGGUCAUAGGCCAUGGAAACUAGGAGCACCAUUUCGCUGCCAGUGAAGAAAUGAACAAAGAAAAACUGGGCCUGGCAGGCUUCAAAAGAAAUAGUCUUGCGCUCAACCAGAAAGUCCGUAAUCAUUUUAAGGGUA [U70A A78U A86U U122C] yielded a self-cleavage of 0.09. Variant GUUAACGGUCAUAGGCCAUGGAAACUAGGAGCACCAUUUCGCUGCCAGUGAAGAAAUGAACAAAGAAAACCUGGGCCAGGCAGGCGUCAAAAGAGAUAGUCUUGCGCUCAACCAGAAAGUCCGUAAUCAUUUUAAGGGUA [U70C A86G A95G U122C] has a self-cleavage of 0.88. GUUAACGGUCAUAGGCCAUGGAAACUAGGAGCACCAUUUCGCUGCCAGUGAAGAAAUGAACAAAGAAAAGCUGGGCCUGGCAGGCAUCAAAAGAAAUAGUCCUGCGCUCAACCAGAAAGUCUGUAAUCAUCUUAAGGGUA [U70G A78U U102C U131C] showed a self-cleavage of 1.16. GUUAACGGUCAUAGGCCAUGGAAACUAGGAGCACCAUUUCGCUGCCAGUGAAGAAAUGAACAAAGAAAACCUGGGCCGGGCAGGCAUCAAAAGAAAUAGUCUUGCGCUCAACCAGGAAGUCUGUAACCAUUUUAAGGGUA [U70C A78G A116G U127C] gave a self-cleavage of 0.29. In the case of GUUAACGGUCAUAGGCCAUGGAAACUAGGAGCACCAUUUCGCUGCCAGUGAAGAAAUGAACAAAGAAAACCUGGGCCAGGCAGGCAUCAAAAGAAAUAGUCUUGCGCUCAACCAGAAAAUCCGUAAUCAUUUUAAGGGUA [U70C G119A U122C], the self-cleavage is reported as 0.93. Variant GUUAACGGUCAUAGGCCAUGGAAACUAGGAGCACCAUUUCGCUGCCAGUGAAGAAAUGAACAAAGAAAACCUGGGCCAGGCUAGCAUCAAAAGAAAUAGUCUUGCGCUCAACCAGAAAGUCUGUAAUCAUUUUAAGGGUA [U70C A82U G83A] has a self-cleavage of 0.27. In the case of GUUAACGGUCAUAGGCCAUGGAAACUAGGAGCACCAUUUCGCUGCCAGUGAAGAAAUGAACAAAGAAAACCUGGGCCAGGCAGGCAUCAAAAGAAAUAGUCUUGCGCUCACCCAGAAGGUCUGUAAUCAUUUUAAGGGUA [U70C A111C A118G], the self-cleavage is reported as 0.

Reference: the RNAGym collection of RNA variant scans (doi:10.7554/elife.90254)
